From PubChem BioAssay AID686979 (National Center for Advancing Translational Sciences (NCATS), 2013)
Screen size: about 420,000 compounds; about 50,000 (12%) were called active. Inconclusive results (about 26%) are left out. Calls follow the shape of the dose curve; as a rule, active = well fitted inhibition curve with a large enough effect; inconclusive = small, poorly fitted or top-dose-only effect; inactive = flat fitted curve, though single readings scatter. Only a part is listed here, and it is no random draw. Where a structure was tested more than once in an assay, its records may differ in their call.

test: qHTS for Inhibitors of human tyrosyl-DNA phosphodiesterase 1 (TDP1): qHTS in cells in presence of CPT; conditions: chicken DT40 Tdp1-/-;hTDP1 cells + 20 nM CPT, ATP luminescence, 48 h; series mostly up to 46.2 µM; activity change, negative = growth inhibition: at the top concentration; also: nearly all actives have a fitted effect of over 55% in size
Summary of the method: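 Chicken DT40 Tdp1-/- cells stably complemented with human TDP1 were seeded at 400 cells/well in medium containing 20 nM camptothecin, exposed to pin-transferred compounds, and grown at 37 °C for at least 48 hr. Viability was read as ATP luminescence.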
% is scaled to controls: 0 for no effect and ±100 for the full control effect; potency is read from the fitted curve at half-maximal effect.

Row | Compound | activity change, negative = growth inhibition | Potency
1 | CCC(=O)/C=C1\Sc2ccccc2N1CC | inactive: -24.6% | 
2 | CCN(C(=O)CSc1nnc(-c2ccncc2)n1-c1ccccc1)C1CCS(=O)(=O)C1 (stereo not drawn) | inactive: 39.1% | 
3 | Cc1cccc(NC(=O)CSc2nc(C)c(Cc3ccccc3)c(=O)[nH]2)c1 | inactive: -17.7% | 
4 | Cc1ccc(CNC(=O)CCC(=O)N2CC(C)Sc3ccccc32)cc1 (stereo not drawn) | inactive: -27.6% | 
5 | CC[C@]12CCCN3CCc4c(n(c5ccccc45)C(=O)C1)[C@@H]32 | inactive: 5.62% | 
6 | Cc1cc(C)c(/C=C/c2onc(C)c2S(=O)(=O)N2CCC(C(=O)N3CCN(c4ccccc4)CC3)CC2)c(C)c1 |  | active: 16.4 µM
7 | COc1cc(OC)c(C2NC(=O)CCC2[N+](=O)[O-])cc1OC (stereo not drawn) | inactive: 12.3% | 
8 | O=C1CN(C(=O)N[C@@H](Cc2ccccc2)C(=O)N[C@H](C(=O)O)c2ccccc2)c2ccccc2N1 | inactive: -19.7% | 
9 | Cc1cccc(NC(=O)CCN2C(=O)C3C4C=CC(C4)C3C2=O)n1 (stereo not drawn) |  | active: 16.4 µM
10 | Cc1ccc(C)c(-c2ccc(=O)n(Cc3c(F)cccc3Cl)n2)c1 | inactive: -120% | 
11 | CCSc1ncc(Cl)c(C(=O)Nc2sc3c(c2C(=O)NCCCOC)CCCC3)n1 | inactive: -4.94% | 
12 | COC(=O)C1(C)NC(c2ccco2)C2C(=O)N(c3ccc(F)cc3)C(=O)C21 (stereo not drawn) | inactive: 30.2% | 
13 | COC(=O)CCC(C)C1CCC2C3CC[C@H]4CC(O)CC[C@@]4(C)C3CC(O)[C@]12C (stereo partly drawn) | inactive: -31.6% | 
14 | CS(=O)(=O)N1CCc2cc(C(=O)Nc3ccc(C(F)(F)F)cc3)ccc21 |  | active: 9.2 µM
15 | CCOc1ccc(-n2c(SCC(=O)NCc3ccco3)nc3c([nH]c4ccccc43)c2=O)cc1 | inactive: -8.43% | 
16 | O=P(C(=S)Nc1ccccc1Cl)(c1ccccc1)c1ccccc1 |  | active: 9.2 µM
17 | CC1CCC(NC(=O)N(CCCl)N=O)CC1 (stereo not drawn) | inactive: 1.14% | 
18 | CCOC(=O)c1c(OCCO)nn(-c2ccc(Cl)cc2)c1N | inactive: 30.7% | 
19 | CCOC(=O)CNc1nc(C#N)nc(N2CCOCC2)n1 | inactive: -24.5% | 
20 | COc1cc(O)c(C(C)=O)c(OC)c1 | inactive: -16.4% | 
21 | O=C(NC1CCCCC1)[C@@H]1CC=C[C@@H]2CCN(C3CCCCC3)C(=O)[C@@H]21 | inactive: -20.9% | 

Row | Compound | activity change, negative = growth inhibition | Potency
22 | Cn1cc(C(=O)OCC2CCN(CCNS(C)(=O)=O)CC2)c2ccccc21 | inactive: -2.72% | 
23 | CCN(CC)S(=O)(=O)c1ccc2c(c1)C(=NO)c1cc(S(=O)(=O)N(CC)CC)ccc1-2 |  | active: 2.31 µM
24 | O=C(CSc1cccc[n+]1[O-])c1ccccc1Br |  | active: 3.66 µM
25 | Cn1ccnc1SCCNC(=O)CCc1nnc(CCc2ccccc2)o1 | inactive: 34.2% | 
26 | CCCC(=O)Nc1ncnc2c1ncn2[C@@H]1O[C@@H]2COP(=O)(O)O[C@H]2[C@H]1OC(=O)CCC |  | inactive
27 | CCOC(=O)C1CCCN(CC(=O)Nc2c(C(=O)OC)[nH]c3ccc(Br)cc23)C1 (stereo not drawn) |  | active: 16.4 µM
28 | COc1cccc(CN(C)C(=O)c2cc(S(=O)(=O)N3CCN(c4ccccc4)CC3)ccc2Cl)c1 |  | active: 23.1 µM
29 | COc1ccccc1C(=O)Nc1nnc(S(=O)(=O)N2CCCCC2)s1 | inactive: -27.3% | 
30 | CCn1cc(C(=O)N2CCN(c3ccccc3OC)CC2)c2cc(OC)c(OC)cc2c1=O | inactive: -24.7% | 
31 | CC1=C(\C=C/C(C)=C/C=C\C(C)=C\C(=O)O)C(C)(C)CCC1 |  | active: 14.6 µM
32 | CC(=O)N1CCc2ccc(S(=O)(=O)N3CCc4ccccc43)cc21 |  | active: 20.6 µM
33 | Nc1ccc(S(=O)(=O)c2ccc(N)cc2)cc1 |  | inactive
34 | CCOC(=O)C(CCc1ccccc1)NC(C)C(=O)N1C(C(=O)O)CC2CCCC21 (stereo not drawn) | inactive: -6.66% | 
35 | CN(Cc1ccccc1)C(=O)CCN1C(=O)c2cccc([N+](=O)[O-])c2C1=O | inactive: 6.13% | 
36 | C/C=C/c1ccc(Oc2nnnn2-c2ccc(C(N)=O)cc2)c(OC)c1 |  | active: 14.6 µM
37 | CCN1C(=O)[C@H]2[C@@H](c3ccc(-c4ccc(Cl)c(Cl)c4)cc3)N[C@@](CC(C)C)(C(=O)OC)[C@H]2C1=O |  | active: 4.11 µM
38 | CC(C)(C)c1cnnn1-c1ccc(C(=O)CCl)cc1 |  | active: 1.3 µM
39 | CC(=O)c1ccc(NC(=O)c2cn(C)c(=O)c3ccccc23)cc1 | inactive: 1.61% | 
40 | CC(C)(C)S(=O)N1Cc2ccc(CO)cc2[C@H]1CCO (stereo partly drawn) | inactive: -27.6% | 
41 | O=C(CCCN1CC=C(n2c(=O)[nH]c3ccccc32)CC1)c1ccc(F)cc1 |  | inactive
42 | CC(=C/c1ccccc1)/C=N/n1c(-c2ccco2)n[nH]c1=S | inactive: -7.97% | 

Row | Compound | activity change, negative = growth inhibition | Potency
43 | COc1ccc(NC(=O)c2cn(CCC#N)nc2-c2cccs2)cc1 | inactive: -11.1% | 
44 | COc1cccc(CNC(=O)c2cc(S(=O)(=O)N3CCCCC3)c[nH]2)c1 | inactive: -18.3% | 
45 | O=C1C2C3C=CC(C2C(=O)N1C1CCCCC1)C1C(=O)N(C2CCCCC2)C(=O)C31 (stereo not drawn) | inactive: -29.2% | 
46 | O=C(CSc1nc2ccccc2[nH]1)N/N=C/C=C/c1ccccc1[N+](=O)[O-] | inactive: 3.02% | 
47 | Cc1cc(/C=C(\C#N)C(=O)O)c(C)n1CCC(C)C | inactive: -19.3% | 
48 | CCCCCC(O)(c1ccc(OC)cc1)C(CN1CCOCC1)c1ccccc1 (stereo not drawn) |  | active: 16.4 µM
49 | Cc1ccccc1C(=O)NCC(=O)Nc1ccccc1C(F)(F)F | inactive: 14.6% | 
50 | Cc1cccc(N/N=C/c2ccc(C)s2)c1 |  | active: 29.1 µM
51 | COc1nc(C#N)nc(N(C)C)n1 | inactive: 2.28% | 
52 | Cc1cc(-c2ccc(C)c(S(=O)(=O)NCc3cccc(Br)c3)c2)on1 | inactive: -24.5% | 
53 | O=C1S/C(=C\c2ccccc2)C(=O)N1CC(O)Cn1c2ccccc2c2ccccc21 (stereo not drawn) | inactive: 0.12% | 
54 | Cc1cc(C)c2c(CN3CC(C)OC(C)C3)cc(=O)oc2c1C (stereo not drawn) | inactive: 15.8% | 
55 | CCO[C@@H]1OC(C(=O)NCc2ccccc2)=C[C@H](c2ccc3c(c2)OCO3)[C@H]1CCCO | inactive: -8.27% | 
56 | C[C@@]12C(=O)OC(=O)[C@]1(C)C1CCC2O1 |  | inactive
57 | CCN(CC)CCSC(=O)C(c1ccccc1)c1ccccc1 | inactive: -20.2% | 
58 | CCOC(=O)CCCc1c[nH]c2ccccc12 | inactive: -3.4% | 
59 | COc1ccc(/C=N/NC(=O)c2ccn[nH]2)cc1Cn1cc([N+](=O)[O-])cn1 | inactive: -0.547% | 
60 | COc1cc(-c2cc(N)n(S(=O)(=O)c3ccc(F)cc3)n2)cc(OC)c1OC |  | active: 16.4 µM
61 | Cc1cc(C)nc(/N=C(\N)Nc2ccc(-c3ccccc3)cc2)n1 |  | active: 7.31 µM
62 | Cn1c(=O)oc2cc(S(=O)(=O)Nc3ccccc3O)ccc21 | inactive: -24.8% | 
63 | COc1ccc(-c2cn(Cc3ccc4ccccc4c3)nn2)cc1 | inactive: -29.5% | 
